Test results taken from the supplement of paper PMC11417369.
± gives the standard deviation of the averaged measurements. This is one part of the list.

Test system: PfAP2-I AP2 domain 3 (GST-tagged)
Assay: gcPBM binding intensity (ln(normalized median fluorescence intensity)); higher = stronger DNA binding
Outline: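 Plasmodium falciparum DNA-binding domains carrying a GST tag were expressed in E. coli and applied for 1 h, at about 25 μg on average, to an Agilent 4 × 180k array. The array held primer-extended double-stranded 36-bp intergenic genomic probes together with negative controls, and binding took place in 1× PBS with 1% milk, 0.2 mg/ml BSA, 0.5% salmon testes DNA and 0.03% Triton X-100. An Alexa488 anti-GST antibody detected bound protein, and the array was scanned at 488 nm. Binding intensity is taken as the highest Masliner-normalised natural-log median intensity across replicate spots of either probe orientation.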

Sequence	gcPBM binding intensity (ln)
TATATATTTTTTTCAAGTACACATTACAGTTACATA [XGTACX_site2713]	8.03 ± 0.23
ATTCGATGTTTTAAATGTACACAAATTGAAGGAATA [XGTACX_site409]	8.12 ± 0.41
ATGTTTTCTCTTTCGGTGCATTGTTTTCTATACTTT [GTGCAC_site9483]	10.6 ± 0.38
ATAATATAATATAAAACACACATATGTACCTTCTAA [CACACA_site2761]	7.77 ± 0.47
CAAGTTCAAAATACAAGGAAGAAACAAAACTTGGCG [GTGCAC_negctrl_site600]	7.88 ± 0.93
TAAAAATATCTGTATACACACATATATATATATATA [CACACA_site6042]	9.44 ± 0.39
AAAAAAAAAAAAAAAAGTACAAATCTTTATTTATTA [XGTACX_site3305]	8.49 ± 0.67
AAAACAAATGCTTAAAGTACTTATTATTTTTCTTTT [XGTACX_site6324]	7.68 ± 0.83
TTCCTACTATTCAAACGTACAAAATATTTAAATAAT [XGTACX_site700]	7.92 ± 0.41
TATTATAAAACATTATGTACATATTCTGAAAAATAG [XGTACX_site6577]	7.68 ± 0.4
TATTTCTTATTTATTTTTTAAGGAAATTAAAGATTT [CACACA_negctrl_site258]	7.31 ± 0.38
CAAAATAAAAAATTCACACACATATATATATATATA [CACACA_site2088]	9.37 ± 0.27
TGGTGATCAAAATATACATGCATATGTTCTGTTATT [TGCATGCA_site614]	7.56 ± 0.71
TATATATTAGAAGATAGTACATATATATTTATTAAT [XGTACX_site1011]	7.74 ± 0.52
GCTCAATGTTTTACATGTACATATATATATATATAT [XGTACX_site8210]	9.38 ± 0.42
TATGATATCTATAATACACACATATACATAAGATCT [CACACA_site6652]	7.75 ± 0.33
TTAATATAACTTTTTGCACACTTAATTTTTTTTTTT [CACACA_site3364]	9.32 ± 0.085
TTATATAAAACATTAACACACAAAGAAAAAAAATTA [CACACA_site1793]	7.71 ± 0.67
ATATAAATCATTGGTTGTACATATAATATTTTATAA [XGTACX_site925]	7.95 ± 0.2
TATTTTTACCCATAAAGTACACATAAATATAAAATA [XGTACX_site177]	7.91 ± 0.36
TATATATCTATATATTGTACATATGTTTGTATGTGT [XGTACX_site7420]	7.92 ± 0.5
TAATATTTCTTATTTTATATTTGTATATGAATGGAT [XGTACX_negctrl_site278]	7.53 ± 0.42
TTTTTTTTTTTTTGATGTACAATTAATATTATAAAA [XGTACX_site6969]	8.16 ± 0.66

Sequence	gcPBM binding intensity (ln)
ATTTCTTTTTTATTGAGTACATATGACCATGTTCAA [XGTACX_site5365]	8.14 ± 0.38
AGTAATAAATAATTTACACACATATTATATCATCAC [CACACA_site1890]	7.71 ± 0.56
CATTTTAAAGAAAATACACACAAAAATAGATATATA [CACACA_site6773]	7.54 ± 0.49
GAAAAAAATGAAATTAGTACTTATCTTAAATTTTTA [XGTACX_site1018]	7.35 ± 0.42
AAAAATATATAATAAAGTACACATAAATGAATAAAT [XGTACX_site329]	7.7 ± 0.49
TGTAAGCACATACAAACACACAACATTATTTTTATC [CACACA_site2186]	7.96 ± 0.36
TAGTATAATATGAACACACACACACGCACAAAAAAA [CACACA_site7035]	8.41 ± 0.62
ATCGTTATATAAAAATGTACTTATAAATTGTATACA [XGTACX_site6664]	7.85 ± 0.41
CAACATTTGATAAACACACAGAAGTATAAATATATA [CACACA_site2365]	7.58 ± 0.61
TATTATATTATGTGATGTACATATTTATATAGGCCC [XGTACX_site4746]	7.76 ± 0.29
ATTTATTGACTATTTACACACATATTTATTAAAATA [CACACA_site4980]	8.16 ± 0.52
TACGCTCCCAGACACACACACACACCGATATAATAT [CACACA_site8098]	8.26 ± 0.43
TATTACATACCTTATTGTACAAATTATATATTAAAG [XGTACX_site7334]	7.91 ± 0.48
ACAGTATCTGGTAGCTGTACGAGTCGTAGAGAGTAG [XGTACX_site2041]	8.54 ± 0.33
ATTCAGTTATATAATACACACATATATTGACATTAT [CACACA_site2723]	8.04 ± 0.49
AGGTGCAAAAATAAAACATGCAAAAATAAAAATGAA [TGCATGCA_site502]	10.9 ± 0.65
TAATAAAAAATATATACACACAAATAAATAAATAAA [CACACA_site4037]	7.84 ± 0.78
AATAGTCGTGTGCATACACACCTTAACTATAATATA [CACACA_site6636]	8.83 ± 0.2
AATAATTAAATAAGAGTGCATGAAACAGGAAATTTC	9.37 ± 0.34
TATTGTTAAAATGAATAATTAAAACAGTAATGAATA [XGTACX_negctrl_site170]	7.42 ± 0.62
TTAGCAACTATTACTACACACATTTTTATATAACTT [CACACA_site6762]	7.84 ± 0.59
AAGAAATAAAGCAAAACATGCACTCGAAAATGTTTT [TGCATGCA_site1014]	8.42 ± 0.4
CGCATGCAATGTTAATGTACATATATATATATATGT [XGTACX_site3316]	8.54 ± 0.27

Sequence	gcPBM binding intensity (ln)
TATATATGTTTTTATGTACACACTTTTAACCTAAGA [CACACA_site1149]	8.03 ± 0.4
ATGTCTAATTTTGATGCACACTTTTGTGCAATTAAA [CACACA_site5589]	10.2 ± 0.26
GAAAAAACGAAAAAAATACACACCTGAAAAGATATG [CACACA_site887]	7.46 ± 0.8
ATACATACAAAAATTTGTACATATTTCCAATAATGT [XGTACX_site2658]	7.75 ± 0.45
AAATTTCCATTTGGGTGTACATGTGAAACTACAAAG [XGTACX_site208]	8.1 ± 0.51
GCCATAATATGACATACACACACAAAAAAAAAAAAA [CACACA_site8353]	8.06 ± 0.73
AAACAATTGAATAAATGTACAGATACATTTTTTTAA [XGTACX_site5386]	7.28 ± 0.37
TATTTATCTATTTTGTTATATAATAAAATAAAATAA [CACACA_negctrl_site281]	7.56 ± 0.4
AAAAATAAACAAAATTGTACACATTACATACATATA [XGTACX_site966]	7.7 ± 0.42
TATATATATATATGTAGTACTCAATATTGTAGATTA [XGTACX_site3856]	9.22 ± 0.25
AAATATATGTATATATGTACATATGTGTGCTATCAT [XGTACX_site1604]	8.565 ± 0.064
TAATTTTTTTTTAATTGTACATGTGAATATATTTCA [XGTACX_site4115]	7.67 ± 0.35
GTTTACATTTTAAGAAGTACAAAATTTATGGTTAAA [XGTACX_site450]	7.96 ± 0.45
TGTTCTTTGTTCAGCGCATGTAAAATAAAATAAAAT [TGCATGCA_site629]	8.21 ± 0.43
TTTTTTTTTGAATACAGTACACAAGTGTTAAGTTTA [XGTACX_site7069]	7.59 ± 0.57
TATGAATATCTATACACACACATATATATACCCACT [CACACA_site4963]	8.07 ± 0.61
GATTGATTATATGTGTGTACTTATATGTTAAAAAAA [XGTACX_site4784]	8.06 ± 0.31
AAAGGTGTCATATATGCACACAAAAGTAACACGCAC [CACACA_site8051]	10.3 ± 0.2
TTTATTCTTGAGTATTGTACATATGTGTTTGTATAT [XGTACX_site5706]	7.85 ± 0.31
GAAAGAATAAAATTTACACACATATAAATATACATA [CACACA_site7125]	7.5 ± 0.42
AGGAGGATGCATATGGCACACATTATGAAACTGTCG [CACACA_site299]	9.11 ± 1
ACACTAACATCATATCGTACATTTGTTAATTTATAA [XGTACX_site8654]	8.06 ± 0.4
TATTTATTTTTTTTTGTGCACTTAATATAATCTTAC	11.07 ± 0.042

Sequence	gcPBM binding intensity (ln)
TTTTCCCTCTTATTCACACAAAAAAAATAAAATAAA [CACACA_site4656]	7.86 ± 0.21
TTTTTATTTATATGATACTTATATATATATATATAT [CACACA_negctrl_site462]	9.39 ± 0.53
TCTTTTAAAAAAATTTGTACATATTTTTTGTATTAT [XGTACX_site67]	7.79 ± 0.47
TTCTTAATATTGCATGCACACTATATAATAATTGAA [CACACA_site4720]	8.96 ± 0.28
ATACAAAAGGGGAATACACACACATATATATATATA [CACACA_site8694]	9.21 ± 0.38
AATAAACATAGATGTACACACATATACAGATATATA [CACACA_site5570]	7.88 ± 0.16
TTGTTCTATATATATGCATGCACGTATGTTAAATTA [TGCATGCA_site659]	11.3 ± 0.23
TATTAATTTTTATACGCATGTGTATAGTAATATATA [TGCATGCA_site1010]	7.62 ± 0.42
TCTCATATATTGAATTGTACATATGTTAAAATATAG [XGTACX_site6764]	7.75 ± 0.36
AAAAATAAAGGATATACACACTAATTCTATAAATAT [CACACA_site7344]	7.58 ± 0.36
TATAAGTATTAATACACACACAAAATAATAAAAAAA [CACACA_site3481]	7.95 ± 0.63
GTCTCGATAATGAAAAGTACAAAATAAAAATAATAA [XGTACX_site6471]	8.14 ± 0.13
TAAAGAATAATACATTCACACAATATTATAAAAATA [CACACA_site5986]	7.33 ± 0.54
TTGTATGAATTTATTTTTATTGATAATTAATATGTA [TGCATGCA_negctrl_site143]	7.35 ± 0.48
GAAATGTCATATAATAGTACACACATGAAAATATAA [XGTACX_site6838]	8.09 ± 0.33
TATGATTAATTACCACAATTGACAAAAAAAAAAAAA [CACACA_negctrl_site336]	8.13 ± 0.87
AAAAAAAACAGACACACACACATACAAAATATATAT [CACACA_site1449]	7.89 ± 0.43
TTTAAATACAGACATACACACATACACAGACATATA [CACACA_site4460]	7.92 ± 0.28
ATATTTTTATGTACTTCAAAAAAAAAGAAAAACAAA [CACACA_negctrl_site970]	7.9 ± 0.028
CTCTATTGTTAAAAGGTGCTTTTATGATTTTATATA [GTGCAC_site9409]	9.63 ± 0.38
